In all, about 310,000 compounds went through this assay and about 14,000 (4.5%) showed an effect of 50% or more. The effect is printed as a negative number. The list shows a part of the results.
These compounds were tested against human ether-à-go-go-related gene (hERG) potassium channel (human, UniProt Q12809) (assay: primary screen, population patch clamp on CHO cells stably expressing hERG).
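Further: peak tail current of the secondary pulse compared with the same well before compound.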

Chain of human ether-à-go-go-related gene (hERG) potassium channel (Q12809 whole entry, looked up): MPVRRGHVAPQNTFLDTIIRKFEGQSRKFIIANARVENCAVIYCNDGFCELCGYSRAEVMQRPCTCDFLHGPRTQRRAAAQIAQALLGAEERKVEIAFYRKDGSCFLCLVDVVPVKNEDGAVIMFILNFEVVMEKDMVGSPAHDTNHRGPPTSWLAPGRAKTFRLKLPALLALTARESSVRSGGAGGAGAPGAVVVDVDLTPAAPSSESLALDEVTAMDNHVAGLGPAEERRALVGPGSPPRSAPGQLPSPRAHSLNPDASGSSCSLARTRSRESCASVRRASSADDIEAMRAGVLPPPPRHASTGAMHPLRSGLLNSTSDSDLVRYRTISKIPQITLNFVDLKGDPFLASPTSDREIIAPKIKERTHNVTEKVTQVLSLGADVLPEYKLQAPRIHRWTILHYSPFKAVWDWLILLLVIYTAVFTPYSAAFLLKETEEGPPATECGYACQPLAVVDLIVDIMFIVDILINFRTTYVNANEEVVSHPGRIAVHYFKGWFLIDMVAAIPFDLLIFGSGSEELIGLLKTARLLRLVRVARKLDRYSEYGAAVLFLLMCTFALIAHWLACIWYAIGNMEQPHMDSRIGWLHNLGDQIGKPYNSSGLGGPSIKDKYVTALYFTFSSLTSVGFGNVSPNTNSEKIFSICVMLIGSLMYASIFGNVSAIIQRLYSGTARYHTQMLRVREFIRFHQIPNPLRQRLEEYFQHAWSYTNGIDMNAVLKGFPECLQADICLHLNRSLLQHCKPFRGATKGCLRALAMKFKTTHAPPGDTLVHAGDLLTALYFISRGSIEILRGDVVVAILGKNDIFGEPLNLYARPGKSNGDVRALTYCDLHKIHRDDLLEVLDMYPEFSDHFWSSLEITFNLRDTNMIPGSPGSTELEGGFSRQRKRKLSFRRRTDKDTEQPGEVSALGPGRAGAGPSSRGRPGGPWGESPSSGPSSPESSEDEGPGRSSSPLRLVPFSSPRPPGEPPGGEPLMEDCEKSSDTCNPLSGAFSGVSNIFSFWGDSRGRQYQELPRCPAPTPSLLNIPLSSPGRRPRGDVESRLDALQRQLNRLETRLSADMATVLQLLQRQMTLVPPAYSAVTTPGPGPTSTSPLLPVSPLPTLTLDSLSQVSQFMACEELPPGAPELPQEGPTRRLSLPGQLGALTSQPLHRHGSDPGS

For `O=C(CC1C(=O)NCCN1C(=O)Nc1ccc(F)cc1F)Nc1cc(Cl)ccc1Cl` (centres unmarked), which “hERG current change (%, negative = inhibition) at 10uM” value is on record?
The value was -1.87%.

With `CCOC(=O)N1CCN(C(=O)CN2C(=O)NC(C)(c3ccc4ccccc4c3)C2=O)CC1` (centres unmarked) as the compound, how does the “hERG current change (%, negative = inhibition) at 10uM” value read?
Its value is -30.8%.

How did the “hERG current change (%, negative = inhibition) at 10uM” value turn out when `CC(C)(C)c1nnc(NC(=O)Cc2ccccc2[N+](=O)[O-])s1` was run?
Its value is -26.8%.

With `O=C(Cn1cnc2c(nnn2Cc2ccccc2)c1=O)c1ccccc1` as the compound, how does the “hERG current change (%, negative = inhibition) at 10uM” value read?
Its value is -8%.

How did the “hERG current change (%, negative = inhibition) at 10uM” value turn out when `COc1ccc(C(CC(=O)NCCN2CCOCC2)NS(=O)(=O)c2ccc(C)cc2)cc1` (centres unmarked) was run?
Its value is 5.28%.

With `Cc1ccc(S(=O)(=O)N(Cc2ccccc2)Cc2ccco2)cc1` as the compound, how does the “hERG current change (%, negative = inhibition) at 10uM” value read?
Its value is 3.04%.

For `CCOC(=O)N1CCN(C(=O)c2ccc3c(c2)NC(=O)/C(=C/c2ccccc2)S3)CC1`, which “hERG current change (%, negative = inhibition) at 10uM” value is on record?
Its value is -17.8%.

For `Cc1cn(CCOc2ccc(Cl)cc2)c(=O)[nH]c1=O`, which “hERG current change (%, negative = inhibition) at 10uM” value is on record?
The value was -8.22%.

`O=C(O)c1c2c(nc3ccc(S(=O)(=O)N4CCC(C(=O)NCc5ccccc5Cl)CC4)cc13)CCCC2` was tested. Which “hERG current change (%, negative = inhibition) at 10uM” value did it give?
Its value is -5.66%.

Which “hERG current change (%, negative = inhibition) at 10uM” value does the source give for `Nc1nc2c(F)c(F)c(F)cc2s1` here?
The value was 29%.

How did the “hERG current change (%, negative = inhibition) at 10uM” value turn out when `N#Cc1ccccc1OCC(=O)Nc1ccc(N2CCOCC2)cc1N1CCOCC1` was run?
The value was -22.7%.

How did the “hERG current change (%, negative = inhibition) at 10uM” value turn out when `CCc1cc2c(-c3ccccc3)cc(=O)oc2cc1OCC(=O)NCC1CCC(C(=O)O)CC1` (centres unmarked) was run?
The value was 4.69%.

How did the “hERG current change (%, negative = inhibition) at 10uM” value turn out when `CCc1noc(C)c1C(=O)NCCc1ccc(Cl)cc1` was run?
The value was 13.6%.

With `CCc1nn(C(CC)C(=O)NCc2cccc(OC)c2)c(=O)c2cc3occc3n12` (centres unmarked) as the compound, how does the “hERG current change (%, negative = inhibition) at 10uM” value read?
Its value is -32.9%.

How did the “hERG current change (%, negative = inhibition) at 10uM” value turn out when `COCCNC(=O)CN(C(=O)Cn1nnc2ccccc21)c1ccc(C)cc1` was run?
Its value is 31%.

For `CC1CN=C(Nc2cccc3ccccc23)S1` (centres unmarked), which “hERG current change (%, negative = inhibition) at 10uM” value is on record?
The value was -10.7%.

Which “hERG current change (%, negative = inhibition) at 10uM” value does the source give for `CCCc1ccc(-c2cc(C(=O)N3CCN(c4ccccn4)CC3)c3ccccc3n2)cc1` here?
The value was 13.4%.

For `CCCOc1ccccc1NC(=O)/C=C/C(N)=O`, which “hERG current change (%, negative = inhibition) at 10uM” value is on record?
Its value is 5.16%.

Which “hERG current change (%, negative = inhibition) at 10uM” value does the source give for `Cc1ccc(C)c(NC(=S)Nc2cccnc2)c1` here?
The value was 10.7%.

`CC1(C)c2cc(O)ccc2OC1N1CCOCC1` (centres unmarked) was tested. Which “hERG current change (%, negative = inhibition) at 10uM” value did it give?
The value was 13.6%.

How did the “hERG current change (%, negative = inhibition) at 10uM” value turn out when `O=C(CSc1nc2[nH]ncc2c(=O)[nH]1)Nc1nccs1` was run?
The value was 2.49%.

With `Cl.O=C(CCc1ccccc1)N1CCN(CCO)CC1` as the compound, how does the “hERG current change (%, negative = inhibition) at 10uM” value read?
The value was 12%.

With `Cc1ccccc1[C@@H](NC(=O)OC(C)(C)C)C(=O)OC(C)(C)C` as the compound, how does the “hERG current change (%, negative = inhibition) at 10uM” value read?
The value was 1.92%.

`CCOC(=O)C1(CCOC)CCN(Cc2ccc(C(=O)OC)cc2)CC1` was tested. Which “hERG current change (%, negative = inhibition) at 10uM” value did it give?
The value was -27.2%.

How did the “hERG current change (%, negative = inhibition) at 10uM” value turn out when `Fc1ccc2nc(Nc3nc4c(s3)CCCC4)sc2c1` was run?
The value was 3.62%.

`COc1ccc(C(=O)N/N=C\c2coc3ccc(C)cc3c2=O)cc1` was tested. Which “hERG current change (%, negative = inhibition) at 10uM” value did it give?
The value was 14.7%.

For `O=C(COc1ccc2ccc(=O)oc2c1)NCCc1c[nH]c2ccc(F)cc12`, which “hERG current change (%, negative = inhibition) at 10uM” value is on record?
Its value is 19.8%.

How did the “hERG current change (%, negative = inhibition) at 10uM” value turn out when `CN1CCN(CCc2nc3cc(NC(=O)COc4ccccc4)ccc3n2C)CC1` was run?
Its value is -32.6%.

`N#CC1=C(N)Oc2c(c(=O)sc3ccccc23)C1c1cccnc1` (centres unmarked) was tested. Which “hERG current change (%, negative = inhibition) at 10uM” value did it give?
The value was 11%.

For `O=C(NCc1ccco1)C1CCCCN1S(=O)(=O)c1ccc(F)cc1` (centres unmarked), which “hERG current change (%, negative = inhibition) at 10uM” value is on record?
The value was -2.24%.

For `Cc1cc(OCC(=O)N2CCOCC2)ccc1NC(=O)C1CCCCC1`, which “hERG current change (%, negative = inhibition) at 10uM” value is on record?
Its value is 3.92%.

For `COCCn1c(C)cc(C(=O)CN2CCCCC2)c1C.O=C(O)C(=O)O`, which “hERG current change (%, negative = inhibition) at 10uM” value is on record?
Its value is 35.8%.

How did the “hERG current change (%, negative = inhibition) at 10uM” value turn out when `CC1CCN(C(=O)COC(=O)CSc2ccc(C(N)=O)cc2[N+](=O)[O-])CC1` was run?
Its value is -5.38%.

Which “hERG current change (%, negative = inhibition) at 10uM” value does the source give for `COc1ccc(NC(=S)N(CCN2CCOCC2)Cc2ccccc2F)cc1` here?
Its value is -10.7%.

With `COc1ccc(CCNS(=O)(=O)c2ccc(Br)cc2)cc1OC` as the compound, how does the “hERG current change (%, negative = inhibition) at 10uM” value read?
The value was 2.58%.

Which “hERG current change (%, negative = inhibition) at 10uM” value does the source give for `Cc1cccc(NC(=O)CNC(=O)c2ccco2)n1` here?
The value was 7.23%.

`Cc1[nH]c(C)c(S(=O)(=O)N2CCN(c3ccccc3)CC2)c1C(=O)N1CCCCC1` was tested. Which “hERG current change (%, negative = inhibition) at 10uM” value did it give?
Its value is 6.19%.

Which “hERG current change (%, negative = inhibition) at 10uM” value does the source give for `COc1ccccc1C(=O)NCCCN1CCCC1=O` here?
The value was 7.63%.

Which “hERG current change (%, negative = inhibition) at 10uM” value does the source give for `[N-]=[N+]=CC(=O)OC[C@H](N)C(=O)O` here?
Its value is 10.8%.

With `CCN1CCN(Cc2ccc(NC(=O)c3cc(NC(=O)c4cc5cccc(OC)c5o4)cc(OC)c3)cc2C(F)(F)F)CC1` as the compound, how does the “hERG current change (%, negative = inhibition) at 10uM” value read?
Its value is 8.13%.

With `COc1ccc(/C=C2\N=C3CCCN3C2=O)cc1` as the compound, how does the “hERG current change (%, negative = inhibition) at 10uM” value read?
Its value is -6.43%.

With `CC1CCN(C(=S)Nc2ccc(F)cc2)CC1` as the compound, how does the “hERG current change (%, negative = inhibition) at 10uM” value read?
The value was 3.1%.

For `Cc1cccc(-c2nc(CSc3nc4c(c(=O)[nH]3)CCC4)c(C)o2)c1`, which “hERG current change (%, negative = inhibition) at 10uM” value is on record?
The value was 17.9%.

Which “hERG current change (%, negative = inhibition) at 10uM” value does the source give for `CCCNC(=O)C1CC(c2cccc(F)c2)=NO1` (centres unmarked) here?
Its value is -3.13%.

From publication PMC4336329 (PLoS ONE, 2015)
